# The BET-seq Pho4 binding data (Le et al. 2018)
# The other results are listed elsewhere or left out. The energies were worked out here from pooled read counts, against the library average; single values are noisy.
# Target: T1, Pho4 (S. cerevisiae) (UniProt P07270)
# T1 sequence: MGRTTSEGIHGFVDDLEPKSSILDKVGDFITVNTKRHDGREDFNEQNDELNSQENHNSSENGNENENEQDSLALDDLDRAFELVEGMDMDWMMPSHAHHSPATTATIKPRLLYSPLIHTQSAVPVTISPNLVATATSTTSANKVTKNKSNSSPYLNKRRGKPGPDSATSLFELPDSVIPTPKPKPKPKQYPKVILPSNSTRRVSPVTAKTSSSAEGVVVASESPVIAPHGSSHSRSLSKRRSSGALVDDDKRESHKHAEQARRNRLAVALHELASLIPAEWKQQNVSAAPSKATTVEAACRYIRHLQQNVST
# Experiment: relative binding free energy (BET-seq); higher = weaker binding
# Conditions: reference: library average
row,Sequence,relative binding free energy [kcal/mol]
1,GGATGCACGTGTTTAT,-0.03
2,GTGACCACGTGGCGGT,-0.08
3,GTGGGCACGTGAGATT,0.1
4,TTTCTCACGTGAATGG,0.4
5,TTCTTCACGTGGTTCT,0.33
6,GGGGTCACGTGTAAGC,0.26
7,ATTCTCACGTGGGGGT,0.06
8,TTTGACACGTGTTGCA,0.05
9,ATTCTCACGTGATGTG,0.15
10,TGAATCACGTGTAATA,0.19
11,AGTTCCACGTGTTAGG,0.23
12,AGTTGCACGTGAGGTC,0.17
13,ATTTGCACGTGGGGTG,-0.19
14,TATTGCACGTGTTACG,-0.05
15,GTATGCACGTGGCCGG,-0.24
16,AAGATCACGTGAAGTG,0.33
17,GCGTTCACGTGATGGA,0.48
18,ATGGACACGTGGGGCT,-0.06
19,GAAGGCACGTGTTAAT,-0.06
20,GTTTTCACGTGATGAG,0.42
21,TTATACACGTGGGCTT,-0.12
22,GTATGCACGTGGTGTT,0.02
23,TTTTTCACGTGGCAAT,0.24
24,ACTTGCACGTGTGGCT,0.22
25,TGGTACACGTGAGCTA,0.32
26,ATATTCACGTGTACGT,0.06

row,Sequence,relative binding free energy [kcal/mol]
1,GGTAACACGTGTTGTC,0.25
2,TTTTTCACGTGGGGCT,0.27
3,TAAGGCACGTGAGGAT,0.2
4,TATAGCACGTGGCAGT,-0.22
5,GGGTACACGTGGGGAC,0
6,CGTTACACGTGTGGTG,0.09
7,GTGGGCACGTGCTTTA,-0.06
8,GAGGTCACGTGGTGCG,0.17
9,TCGTACACGTGGGTGG,-0.11
10,TTATTCACGTGAATGA,0.4
11,CGGTTCACGTGATAGA,0.3
12,ATGTACACGTGATTTT,0.3
13,GGAGGCACGTGGCCTG,-0.3
14,AAAGTCACGTGGCTGT,-0.01
15,TGCTGCACGTGAGGCT,0.27
16,TATTTCACGTGCATTA,0.17
17,ATCGCCACGTGGTGGT,-0.18
18,TGGTGCACGTGTTGGT,-0.01
19,CGGTTCACGTGGATGC,0.24
20,ATAATCACGTGGTGGC,0.01
21,TGGCGCACGTGGTCTG,-0.24
22,AGGATCACGTGGTGAT,0.03
23,ATTGTCACGTGTGGGA,0.12
24,TGTTTCACGTGCATGA,0.28
25,GGGTGCACGTGTAGGG,-0.05
26,GTGGACACGTGCTGTA,-0.06

row,Sequence,relative binding free energy [kcal/mol]
1,GATTTCACGTGTTGGC,0.37
2,TGGGCCACGTGTTTTT,0.05
3,ATTGGCACGTGAAATG,0.1
4,TCGGTCACGTGGTAGT,-0.02
5,ATAATCACGTGTGTAG,0.15
6,TTATACACGTGGTACT,-0.07
7,GAGTTCACGTGTGTCT,0.34
8,GCGGTCACGTGTTATT,0.1
9,ATGGTCACGTGCAGGA,0.12
10,TTCAACACGTGTTTTT,0
11,GCTGTCACGTGGATTG,0.04
12,TGTAGCACGTGAGTTA,0.27
13,TAGGACACGTGGGAAG,-0.02
14,AATTTCACGTGTTTTC,0.13
15,CGGGGCACGTGGCAGT,-0.16
16,GAGGTCACGTGGCGGT,0.15
17,CGGAACACGTGCGGTG,0.1
18,AATATCACGTGAGGTG,0.3
19,ACAGGCACGTGTAGTT,-0.07
20,TGGGTCACGTGGTAGT,0.07
21,CAAGTCACGTGGGAGG,-0.02
22,TGTTGCACGTGTCAGA,0.16
23,TTATACACGTGTCTTA,0.03
24,TGATGCACGTGTAACG,0.06
25,ATTATCACGTGAGGGA,0.29
26,TGTAGCACGTGATGTT,0.02

row,Sequence,relative binding free energy [kcal/mol]
1,TTCGACACGTGTTGTG,0.09
2,ATGATCACGTGGTGAA,0.19
3,GTTTGCACGTGGAGGG,0.06
4,GCGGCCACGTGGGGTC,-0.08
5,CGGGACACGTGTGCGG,-0.01
6,TAGGTCACGTGGAAGA,0.16
7,GGGAGCACGTGTTATT,-0.1
8,GTACACACGTGGGGTT,-0.06
9,GTGGGCACGTGCTTAA,-0.14
10,AGAGTCACGTGTTTGA,0.17
11,TTGCTCACGTGTAGGT,0.07
12,ATGTACACGTGCGTTG,-0.02
13,GGGGACACGTGATGGT,0.27
14,TGGTGCACGTGCAGCT,-0.11
15,ATGCTCACGTGTGGGG,0.22
16,GAGTTCACGTGCTTGT,0.29
17,CGTGTCACGTGAGGAA,0.25
18,GGTTTCACGTGGGCTA,0.08
19,GCGGTCACGTGGTGAG,0.07
20,GTTATCACGTGTGTTT,0.34
21,AGTGTCACGTGCAAGT,0.08
22,TTTGTCACGTGGAGGC,0.08
23,ATGGTCACGTGAATTG,0.42
24,TGTCGCACGTGCGTAT,-0.09
25,ACTCTCACGTGTGGGG,0.17
26,TGGGTCACGTGATATT,0.26

row,Sequence,relative binding free energy [kcal/mol]
1,TATGTCACGTGTTAGG,0.16
2,TTGGGCACGTGCAATA,-0.13
3,TACGTCACGTGGAGGT,0.07
4,GGGTTCACGTGTGGGC,0.37
5,CGGGGCACGTGGTAAT,-0.2
6,TTTTGCACGTGCTGAG,-0.02
7,GGTGACACGTGTGGGA,0.16
8,GGTCGCACGTGTGGAT,0.07
9,ATTTGCACGTGGAGCT,0.04
10,AGATTCACGTGCGTGT,0.27
11,TGCAGCACGTGTAGGG,0.01
12,GACGACACGTGGTGTT,0
13,TGAATCACGTGTGGTC,0.21
14,TCTTGCACGTGTGGAT,0.04
15,AATTTCACGTGAGCTT,0.29
16,ATATACACGTGGTATA,-0.05
17,TGGATCACGTGGTGAA,0.27
18,TACCTCACGTGGGTGG,0.04
19,ATAGTCACGTGTAAGG,0.17
20,TATGACACGTGGGGCA,-0.25
21,TTGAACACGTGATCGG,0.12
22,ACGTACACGTGTGAGT,0.12
23,GGTCGCACGTGGGGTT,-0.05
24,GGAGTCACGTGAAATT,0.45
25,GACGGCACGTGATGGT,0.16
26,CTACTCACGTGGTGGG,0.11

row,Sequence,relative binding free energy [kcal/mol]
1,AGGGGCACGTGTTAGT,-0.12
2,AATGACACGTGTTTTA,0.12
3,TAGGACACGTGGGCGG,-0.01
4,TGGGGCACGTGCTCTG,-0.21
5,GTTGTCACGTGGATAT,0.14
6,AAAGGCACGTGGTGAG,-0.19
7,ATGTTCACGTGGAAGA,0.38
8,TATTACACGTGTTTGG,0.15
9,ATTCTCACGTGTGTTT,0.34
10,TATTCCACGTGGGTTT,-0.09
11,GTGAGCACGTGAATGA,0.41
12,CTTGGCACGTGTCATG,0.01
13,TGGTACACGTGTAGTG,0.12
14,CCTATCACGTGGTTGG,0.21
15,ATTAGCACGTGCTAGT,-0.2
16,TTGGACACGTGGTATT,-0.03
17,TGTGACACGTGGATGG,0.12
18,TGTGGCACGTGTTATA,-0.12
19,GACGTCACGTGAGGGG,0.31
20,TTTCTCACGTGTTCGA,0.31
21,GTATGCACGTGAAGCT,0.3
22,GGGATCACGTGCGTGT,0.1
23,GTAGGCACGTGATGGT,0.09
24,ACGATCACGTGGTGGT,0.02
25,GTTTCCACGTGGTGTC,0.09
26,ATTTGCACGTGGGAAG,-0.05

row,Sequence,relative binding free energy [kcal/mol]
1,TGCTTCACGTGAGGCT,0.33
2,GTTGGCACGTGGAGGA,0
3,GTTTGCACGTGGTAAC,0.15
4,TACGGCACGTGGTGTT,-0.07
5,TACTTCACGTGCTGTG,0.29
6,GCATTCACGTGTATTG,0.24
7,GTGGGCACGTGATGTT,0.05
8,TCTTCCACGTGTTTGG,0.2
9,GTTTCCACGTGGGGTC,-0.02
10,TAAGGCACGTGGTAGC,-0.1
11,TGGGGCACGTGCGGAC,-0.15
12,TTTTGCACGTGTTAGG,0.1
13,TGGCTCACGTGGTATG,0.13
14,GTTGGCACGTGTAGCA,-0.06
15,ATAGTCACGTGATGTT,0.2
16,TGTTTCACGTGTGGTT,0.34
17,AGTTCCACGTGTTTTT,-0.07
18,GGTAGCACGTGTTCGT,0
19,TAGGTCACGTGTGCTA,0.08
20,GTATTCACGTGGAGGA,0.06
21,ATTGCCACGTGGGAGG,-0.19
22,TGTTTCACGTGTCCGG,0.37
23,GTTGACACGTGGCGGT,0.02
24,TAGGTCACGTGTTGCG,0.08
25,GTCATCACGTGTTGGT,0.27
26,ATGCGCACGTGACAGT,0.11

row,Sequence,relative binding free energy [kcal/mol]
1,AGTTACACGTGGAGAG,0.02
2,GGTAGCACGTGTTGAA,-0.05
3,AGATACACGTGTGGTC,0.03
4,GACATCACGTGTTTGG,0.22
5,TGTAGCACGTGGAGAG,-0.18
6,GGCTTCACGTGTTGGG,0.49
7,GTTGTCACGTGTAATC,0.11
8,AAAATCACGTGGGTGT,0.08
9,GATTACACGTGGGGGG,0.03
10,GAGTGCACGTGTGAAG,0.28
11,ATTAGCACGTGGGGCT,-0.26
12,GGTGTCACGTGGTGAT,0.15
13,TATGGCACGTGATGTT,0.02
14,ATGGTCACGTGACGCG,0.21
15,GTGGGCACGTGAGCGA,0.04
16,TATTCCACGTGCATGT,0.16
17,TGACGCACGTGAGTGG,-0.07
18,TATTTCACGTGAATGT,0.24
19,TTAGTCACGTGAACTT,0.25
20,TGTTTCACGTGTAGTA,0.24
21,TTGGCCACGTGTTTGT,-0.04
22,TGGTACACGTGTATGC,0.06
23,GGGGTCACGTGCGAAT,0.11
24,GTTTGCACGTGGGCAA,-0.07
25,TTGGGCACGTGGGAAG,-0.13
26,TTCATCACGTGCATTT,0.24

row,Sequence,relative binding free energy [kcal/mol]
1,GGGATCACGTGTAAGA,0.31
2,TCGGGCACGTGGGCGA,-0.21
3,GAGCGCACGTGAGAGG,0.19
4,TTCGGCACGTGTAGGC,-0.1
5,TTGCTCACGTGTTATT,0.18
6,CGGGCCACGTGAGTGT,0.02
7,ATAAGCACGTGCTGGG,-0.02
8,CACGTCACGTGGGTGG,-0.02
9,CGGTTCACGTGTATCG,0.4
10,AATTGCACGTGTAGAT,0.24
11,GTGAACACGTGGAGGC,0.14
12,CGCGGCACGTGGGGAT,-0.26
13,GTTTCCACGTGTTGTC,0.19
14,TAGGGCACGTGAGAAA,0.14
15,AGGTGCACGTGAGTAA,0.09
16,TTGTTCACGTGGTGGA,0.25
17,GTACCCACGTGGGGGG,-0.13
18,GGGAACACGTGGGATG,-0.11
19,GTGGGCACGTGTGGTT,0.08
20,TTAGACACGTGTGTTT,0.05
21,GGGATCACGTGAATTT,0.54
22,GGATGCACGTGGGAGT,-0.1
